{"source": "PubChem BioAssay AID1259400", "about": "(National Center for Advancing Translational Sciences (NCATS), 2018)", "note": "In all, about 350,000 compounds went through this assay and about 2,100 (0.6%) were called active. The shares of active, inactive and inconclusive entries below differ from those in the screen.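 The calls were made as follows: active = activity change of -60% or lower, but not beyond a set lower limit; inconclusive = change between -60% and -40%, or beyond the set limit; inactive = change above -40%.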"}
{"target": "Relaxin receptor 1 (Homo sapiens) (UniProt Q9HBX9)", "sequence (Q9HBX9 whole entry, looked up)": "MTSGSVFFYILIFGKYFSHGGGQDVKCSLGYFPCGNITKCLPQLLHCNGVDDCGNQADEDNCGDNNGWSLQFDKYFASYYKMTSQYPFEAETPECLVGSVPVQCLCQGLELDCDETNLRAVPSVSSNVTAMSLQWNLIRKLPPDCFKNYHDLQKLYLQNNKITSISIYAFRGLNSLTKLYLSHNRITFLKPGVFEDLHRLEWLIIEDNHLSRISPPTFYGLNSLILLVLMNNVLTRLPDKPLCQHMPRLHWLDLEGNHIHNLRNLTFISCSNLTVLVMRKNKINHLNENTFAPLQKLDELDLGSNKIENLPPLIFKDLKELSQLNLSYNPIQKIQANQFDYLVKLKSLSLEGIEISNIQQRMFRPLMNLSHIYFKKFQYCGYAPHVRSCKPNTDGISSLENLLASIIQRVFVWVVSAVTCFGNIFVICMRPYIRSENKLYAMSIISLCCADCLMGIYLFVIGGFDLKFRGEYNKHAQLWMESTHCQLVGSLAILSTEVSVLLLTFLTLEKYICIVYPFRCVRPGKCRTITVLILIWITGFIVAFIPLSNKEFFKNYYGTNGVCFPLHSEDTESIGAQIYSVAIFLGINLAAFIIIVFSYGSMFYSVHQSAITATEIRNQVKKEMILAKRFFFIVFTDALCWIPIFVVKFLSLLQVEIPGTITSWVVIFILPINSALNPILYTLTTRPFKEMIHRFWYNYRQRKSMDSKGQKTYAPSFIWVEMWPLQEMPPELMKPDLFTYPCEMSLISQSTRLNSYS", "assay": "qHTS Assay for Antagonists of the Relaxin Receptor RXFP1; also: % is scaled to controls: 0 for no effect and ±100 for the full control effect", "details": "HEK293-RXFP1, relaxin-stimulated cAMP HTRF, 30 min; at 57.5 µM; stronger effect = lower value"}
{"molecule": "CCOc1ccc(Nc2nc(NCC3CCCO3)c3ccccc3n2)cc1", "note": "(centres undefined)", "activity change, negative = inhibition": "inconclusive: -40.5%"}
{"molecule": "COc1ccc(/C=C/C(=O)c2ccc(C)c([N+](=O)[O-])c2)cc1O", "activity change, negative = inhibition": "inconclusive: -51.7%"}
{"molecule": "CCOC(=O)c1cc(-c2ccc(OC)c(S(=O)(=O)Nc3ccc(OC)cc3OC)c2)on1", "activity change, negative = inhibition": "inconclusive: -45.1%"}
{"molecule": "Cc1cc(C(=O)N/N=C/c2ccc(-c3cccc(Cl)c3)o2)n[nH]1", "activity change, negative = inhibition": "inconclusive: -54.1%"}
{"molecule": "COc1cc(OC)c(NC(=O)c2sc3ncn(CC(=O)N4CCOCC4)c(=O)c3c2C)cc1Cl", "activity change, negative = inhibition": "inconclusive: -47.7%"}
{"molecule": "Cc1cccc2sc(NC(=O)c3cc(S(=O)(=O)N(C)C)ccc3N3CCCC3)nc12", "activity change, negative = inhibition": "inconclusive: -57.8%"}
{"molecule": "CC(=O)N(CC(=O)N(C)C)c1ccccc1", "activity change, negative = inhibition": "inactive: 12.9%"}
{"molecule": "COc1ccc(NC(=O)Nc2sc3nc4n(c(=O)c3c2C)CCC(C)CC4)cc1OC", "note": "(centres undefined)", "activity change, negative = inhibition": "inactive: -11.6%"}
{"molecule": "Cc1noc(/C=C/N(C)C)c1S(=O)(=O)N1CCCC(C(=O)Nc2ccc(F)cc2F)C1", "note": "(centres undefined)", "activity change, negative = inhibition": "inconclusive: -45.2%"}
{"molecule": "COc1cccc(/C=N/NC(=O)c2cc3c(OC)cccc3[nH]2)c1O", "activity change, negative = inhibition": "inactive: 5.29%"}
{"molecule": "Clc1ccc(CN=C(Nc2ccccc2)NC2CCCCC2)cc1", "activity change, negative = inhibition": "inconclusive: -41.4%"}
{"molecule": "COc1cc(OC)cc(C(=O)NCCN2C(=O)S/C(=C\\c3cccs3)C2=O)c1", "activity change, negative = inhibition": "inactive: -0.375%"}
{"molecule": "CCC1=Nc2cc(C(=O)NCCCN3CCOCC3)ccc2Sc2ccccc21", "activity change, negative = inhibition": "inconclusive: -59.8%"}
{"molecule": "COc1ccccc1Cn1ccn(Cc2c(F)cccc2Cl)c(=O)c1=O", "activity change, negative = inhibition": "inactive: 21.3%"}
{"molecule": "CCCCc1ccc(NC(=O)CN2C(=O)C3CCCCC3C2=O)cc1", "note": "(centres undefined)", "activity change, negative = inhibition": "inconclusive: -46.4%"}
{"molecule": "c1ccc(-c2csc(Nc3ccccn3)n2)cc1", "activity change, negative = inhibition": "inconclusive: -52.1%"}
{"molecule": "CCN(CC)c1nc(-c2ccccc2)nc2ccccc12", "activity change, negative = inhibition": "inconclusive: -43.7%"}
{"molecule": "Cc1ccc(S(=O)(=O)N2CCOCC2)cc1C(=O)Nc1ccccc1C(=O)O", "activity change, negative = inhibition": "inconclusive: -40.5%"}
{"molecule": "O=C(c1ccccc1)c1cc(Cl)ccc1N1C(=O)C=CC1=O", "activity change, negative = inhibition": "active: -63.4%"}
{"molecule": "Cc1ccc(S(=O)(=O)N2CCOCC2)cc1C(=O)NCCCn1ccnc1", "activity change, negative = inhibition": "inconclusive: -56.8%"}
{"molecule": "CC(C)c1ccc2c(c1)C(N1CCNCC1)Cc1ccc(F)cc1S2", "note": "(centres undefined)", "activity change, negative = inhibition": "active: -71.7%"}
{"molecule": "C=C(C)CC(Nc1ccc(OC)cc1)c1ccco1", "note": "(centres undefined)", "activity change, negative = inhibition": "inconclusive: -44.6%"}
{"molecule": "CCOC(=O)c1cc(-c2ccccc2)n(CCC(=O)Nc2ccc(Cl)c(C(F)(F)F)c2)c1C", "activity change, negative = inhibition": "inconclusive: -44.1%"}
{"molecule": "CCOc1cccc(/C=N/NC(=S)Nc2ccccc2[N+](=O)[O-])c1O", "activity change, negative = inhibition": "inconclusive: -51.5%"}
{"molecule": "O=C(COC(=O)c1ccc(O)cc1O)Nc1cc(-c2ccccc2)nn1-c1ccccc1", "activity change, negative = inhibition": "active: -73.3%"}
{"molecule": "CCc1ccc(-n2c(SCC(=O)NC(C)CC)nc3n[nH]c(C)c3c2=N)cc1", "note": "(centres undefined)", "activity change, negative = inhibition": "inconclusive: -43.1%"}
{"molecule": "COc1ccc(N2CCN(c3nc(NCCc4ccc(OC)c(OC)c4)nc(OC)n3)CC2)cc1", "activity change, negative = inhibition": "inconclusive: -43.5%"}
{"molecule": "CCCOc1ccc(Cl)cc1CNc1ccccc1", "activity change, negative = inhibition": "inconclusive: -43.7%"}
{"molecule": "O=C(NCc1ccccn1)c1nc(Cn2cc([N+](=O)[O-])cn2)no1", "activity change, negative = inhibition": "inactive: -10.6%"}
{"molecule": "COc1ccc(CN(CC(=O)NCCC(C)C)C(=O)CCC(=O)Nc2nccs2)cc1", "activity change, negative = inhibition": "active: -69.2%"}
{"molecule": "O=C1c2cccc(NCCCNCCO)c2C(=O)c2cccc(NCCCNCCO)c21", "activity change, negative = inhibition": "inconclusive: -53.7%"}
{"molecule": "CCOC(=O)/C=c1/s/c(=C/c2ccc3cc(OC)ccc3c2)c(=O)n1CC(=O)NCc1ccc2c(c1)OCO2", "activity change, negative = inhibition": "active: -78.6%"}
{"molecule": "CCN(c1ccc(OC)cc1)S(=O)(=O)c1nnc(NC(=O)COc2ccc(F)cc2)s1", "activity change, negative = inhibition": "inconclusive: -48.4%"}
{"molecule": "O=C(COc1ccc(Cl)cc1)NCCc1csc(-c2ccc(C(F)(F)F)cc2)n1", "activity change, negative = inhibition": "inconclusive: -48.3%"}
{"molecule": "COC(=O)c1ccccc1NC(=S)NC(NC(=O)c1ccco1)C(Cl)(Cl)Cl", "note": "(centres undefined)", "activity change, negative = inhibition": "inconclusive: -47.5%"}
{"molecule": "CCC(Sc1nc2cc3c(cc2c(=O)n1CCCCCC(=O)NCc1ccc2c(c1)OCO2)OCO3)C(=O)NCCCOC", "note": "(centres undefined)", "activity change, negative = inhibition": "active: -113%"}
{"molecule": "COC(=O)c1sc(N2C(=O)C(=O)/C(=C(/O)c3ccccc3)C2c2ccco2)nc1C", "note": "(centres undefined)", "activity change, negative = inhibition": "inconclusive: -40.4%"}
{"molecule": "Cc1cc(C=O)c(C)n1-c1ccc(NC2CCCCC2)c([N+](=O)[O-])c1", "activity change, negative = inhibition": "inconclusive: -53.1%"}
{"molecule": "COc1ccc(-c2cc(-c3n[nH]c(=S)n3-c3cccc4ccccc34)[nH]n2)cc1", "activity change, negative = inhibition": "inconclusive: -59.7%"}
{"molecule": "CN(C)c1nc(-c2cn(CCC#N)c3ccccc23)cs1", "activity change, negative = inhibition": "active: -81.9%"}
{"molecule": "O=C(NCc1cccc(Cl)c1)c1cnc(N2CCCCC2)c2ccccc12", "activity change, negative = inhibition": "inconclusive: -50.5%"}
{"molecule": "COc1ccc(NS(=O)(=O)c2ccc(O)c(NC(=O)c3ccc(S(=O)(=O)N4CCCC4)cc3)c2)cc1", "activity change, negative = inhibition": "active: -60.1%"}
{"molecule": "CC(C)CC(=O)Nc1ccc(Nc2ccccc2)cc1", "activity change, negative = inhibition": "inconclusive: -52.5%"}
{"molecule": "CCc1ccc(CN(C)C(=O)c2cc(COc3cc(C)c(Cl)c(C)c3)on2)nc1", "activity change, negative = inhibition": "inconclusive: -42%"}
{"molecule": "Cc1nn2c(NCCCn3ccnc3)cc(C(C)C)nc2c1-c1ccccc1", "activity change, negative = inhibition": "inconclusive: -54.5%"}
{"molecule": "CCc1cccc(C)c1NC(=O)Nc1c(Br)cnn1C", "activity change, negative = inhibition": "inactive: 5.86%"}
{"molecule": "Nc1nc2ccccc2cc1-c1cccs1", "activity change, negative = inhibition": "inactive: -1.33%"}
{"molecule": "COCCCNC(=O)c1[nH]c2ccccc2c1Sc1ccc(C)cc1", "activity change, negative = inhibition": "inconclusive: -40.9%"}
{"molecule": "Cc1cccc(C(c2sc3nc(-c4ccco4)nn3c2O)N2CCN(Cc3ccccc3)CC2)c1", "note": "(centres undefined)", "activity change, negative = inhibition": "inconclusive: -48.2%"}
{"molecule": "O=C(CCc1ccccc1)N(Cc1cccnc1)c1nc2c(F)cc(F)cc2s1", "activity change, negative = inhibition": "active: -86%"}
{"molecule": "CCCCCC(=O)Nc1ccc(S(=O)(=O)Nc2ccc(Cl)nn2)cc1", "activity change, negative = inhibition": "inconclusive: -49.7%"}
{"molecule": "CC(C)c1ccccc1NC(=S)NC(=O)C1CCCCC1", "activity change, negative = inhibition": "active: -65.4%"}
{"molecule": "CCCCN(Cc1cccs1)S(=O)(=O)c1cc(-c2cc(C)no2)ccc1C", "activity change, negative = inhibition": "inconclusive: -49.8%"}
{"molecule": "Cc1ccccc1OCc1n(CC(=O)OC2CC(C)CCC2C(C)C)c2ccccc2[n+]1C", "note": "(centres undefined)", "activity change, negative = inhibition": "inconclusive: -50.5%"}
